Measurements published in the supplement of paper PMC4967469.
pIC50: −log10 of the molar value. IC50 is the fitted dose that halves viability relative to control wells, and lower means more sensitive; fits outside the tested doses are given as limits. AUC, from the same fit, is the share of area under the viability curve across the 256-fold dose range; the more sensitive the line, the further below 1. For part of these data: The top dose, if marked as inferred, is not printed in the source and was worked back from the curve model.

Columns and labels:
Assay in all cases: Viability of human cancer cell lines after 72 h of drug (GDSC screen)
IOX2 = compound: O=C(O)CNC(=O)c1c(O)c2ccccc2n(Cc2ccccc2)c1=O [IOX2]; conditions: top dose 0.1 µM; top dose inferred
Procedure: (§1)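 Human cancer cell lines in 384-well plates, medium with 10% serum, drug for 72 h over a 256-fold dose range (nine 2-fold or five 4-fold steps up to the top dose). Adherent lines were fixed and stained with the nucleic acid dye Syto60, suspension lines read with resazurin; signal relative to control wells, capped at 0 and 100%. One two-parameter sigmoid per drug and line, fitted in a mixed model over all curves with the slope shared within a line.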

Bosutinib = compound: COc1cc(Nc2c(C#N)cnc3cc(OCCCN4CCN(C)CC4)c(OC)cc23)c(Cl)cc1Cl [Bosutinib]; conditions: top dose 2 µM
Procedure: as §1

NVP-BHG712 = compound: Cc1ccc(C(=O)Nc2cccc(C(F)(F)F)c2)cc1Nc1nc(-c2cccnc2)nc2c1cnn2C [NVP-BHG712]; conditions: top dose 10.24 µM; top dose inferred
Procedure: as §1

Midostaurin = compound: CO[C@@H]1[C@H](N(C)C(=O)c2ccccc2)C[C@H]2O[C@]1(C)n1c3ccccc3c3c4c(c5c6ccccc6n2c5c31)C(=O)NC4 [Midostaurin]; conditions: top dose 0.512 µM; top dose inferred
Procedure: as §1

SNU-81 (large intestine, adherent)
AUC (IOX2): 0.98 | pIC50 (IOX2): < 7.00 | AUC (Bosutinib): 0.824 | pIC50 (Bosutinib): 5.75 | AUC (NVP-BHG712): 0.981 | pIC50 (NVP-BHG712): < 4.99

NCC021 (kidney, adherent)
AUC (IOX2): 0.968 | pIC50 (IOX2): < 7.00 | AUC (Bosutinib): 0.976 | pIC50 (Bosutinib): < 5.70 | AUC (NVP-BHG712): 0.951 | pIC50 (NVP-BHG712): < 4.99

A375 (melanoma, adherent)
AUC (IOX2): 0.99 | pIC50 (IOX2): < 7.00 | AUC (Bosutinib): 0.67 | pIC50 (Bosutinib): 6.47 | AUC (NVP-BHG712): 0.71 | pIC50 (NVP-BHG712): 5.66

AsPC-1 (pancreas, adherent)
AUC (IOX2): 0.971 | pIC50 (IOX2): < 7.00 | AUC (Bosutinib): 0.911 | pIC50 (Bosutinib): < 5.70 | AUC (NVP-BHG712): 0.795 | pIC50 (NVP-BHG712): 5.03

COR-L321 (lung, suspension)
AUC (IOX2): 0.986 | pIC50 (IOX2): < 7.00 | AUC (Bosutinib): 0.966 | pIC50 (Bosutinib): < 5.70 | AUC (NVP-BHG712): 0.963 | pIC50 (NVP-BHG712): < 4.99

FLO-1 (oesophagus, adherent)
AUC (IOX2): 0.884 | pIC50 (IOX2): < 7.00 | AUC (Bosutinib): 0.888 | pIC50 (Bosutinib): < 5.70 | AUC (NVP-BHG712): 0.919 | pIC50 (NVP-BHG712): < 4.99

SF295 (glioma, adherent)
AUC (IOX2): 0.845 | pIC50 (IOX2): 7.09 | AUC (Bosutinib): 0.911 | pIC50 (Bosutinib): < 5.70 | AUC (NVP-BHG712): 0.925 | pIC50 (NVP-BHG712): < 4.99

SK-GT-4 (oesophagus, adherent)
AUC (IOX2): 0.965 | pIC50 (IOX2): < 7.00 | AUC (Bosutinib): 0.81 | pIC50 (Bosutinib): 5.86 | AUC (NVP-BHG712): 0.898 | pIC50 (NVP-BHG712): < 4.99

PEO1 (ovary, adherent)
AUC (IOX2): 0.98 | pIC50 (IOX2): < 7.00 | AUC (Bosutinib): 0.9 | pIC50 (Bosutinib): < 5.70 | AUC (NVP-BHG712): 0.911 | pIC50 (NVP-BHG712): < 4.99

D-423MG (glioma, adherent)
AUC (IOX2): 0.936 | pIC50 (IOX2): < 7.00 | AUC (Bosutinib): 0.914 | pIC50 (Bosutinib): < 5.70 | AUC (NVP-BHG712): 0.926 | pIC50 (NVP-BHG712): < 4.99

RCC-JF (kidney, adherent)
AUC (IOX2): 0.966 | pIC50 (IOX2): < 7.00 | AUC (Bosutinib): 0.708 | pIC50 (Bosutinib): 6.28 | AUC (NVP-BHG712): 0.958 | pIC50 (NVP-BHG712): < 4.99

CAKI-1 (kidney, adherent)
AUC (IOX2): 0.973 | pIC50 (IOX2): < 7.00 | AUC (Bosutinib): 0.877 | pIC50 (Bosutinib): < 5.70 | AUC (NVP-BHG712): 0.92 | pIC50 (NVP-BHG712): < 4.99

HeLa (cervix, adherent)
AUC (IOX2): 0.988 | pIC50 (IOX2): < 7.00 | AUC (Midostaurin): 0.898 | pIC50 (Midostaurin): < 6.29 | AUC (NVP-BHG712): 0.981 | pIC50 (NVP-BHG712): < 4.99

UACC-62 (melanoma, adherent)
AUC (IOX2): 0.986 | pIC50 (IOX2): < 7.00 | AUC (Bosutinib): 0.981 | pIC50 (Bosutinib): < 5.70 | AUC (NVP-BHG712): 0.939 | pIC50 (NVP-BHG712): < 4.99

JHOS-2 (ovary, adherent)
AUC (IOX2): 0.971 | pIC50 (IOX2): < 7.00 | AUC (Bosutinib): 0.848 | pIC50 (Bosutinib): 5.73 | AUC (NVP-BHG712): 0.908 | pIC50 (NVP-BHG712): < 4.99

OV-7 (ovary, adherent)
AUC (IOX2): 0.968 | pIC50 (IOX2): < 7.00 | AUC (Bosutinib): 0.972 | pIC50 (Bosutinib): < 5.70 | AUC (NVP-BHG712): 0.763 | pIC50 (NVP-BHG712): 5.25

OC-314 (ovary, adherent)
AUC (IOX2): 0.98 | pIC50 (IOX2): < 7.00 | AUC (Bosutinib): 0.914 | pIC50 (Bosutinib): < 5.70 | AUC (NVP-BHG712): 0.988 | pIC50 (NVP-BHG712): < 4.99

OV-17R (ovary, adherent)
AUC (IOX2): 0.973 | pIC50 (IOX2): < 7.00 | AUC (Bosutinib): 0.95 | pIC50 (Bosutinib): < 5.70 | AUC (NVP-BHG712): 0.86 | pIC50 (NVP-BHG712): < 4.99

HCT-15 (large intestine, adherent)
AUC (IOX2): 0.984 | pIC50 (IOX2): < 7.00 | AUC (Bosutinib): 0.932 | pIC50 (Bosutinib): < 5.70 | AUC (NVP-BHG712): 0.95 | pIC50 (NVP-BHG712): < 4.99
